Experimental data taken from the supplement of paper PMC3334620.
The full ranking holds about 33,000 sequences; the median of “E-score (-0.5 to 0.5)” is about -0.056, and the highest 2% start at about 0.38. This is one part of the list.

target: Stb4 (UniProt P50104); assay: PBM E-score (8-mer binding enrichment) (E-score (-0.5 to 0.5)); higher = stronger / more preferred TF binding; most listed sequences are background and not binding sites; conditions: protein concentration: 200 nM; construct: GST-DNA-binding domain
Procedure, shortened: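 Bound GST-tagged yeast transcription factors, applied at about 100-200 nM to double-stranded universal all-10-mer Agilent arrays, were detected with fluorescent anti-GST. Scans were normalised with masliner. A modified Wilcoxon-Mann-Whitney statistic, the E-score, was assigned to each ungapped eight-base word pooled with its reverse complement by the Universal PBM Analysis Suite.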

Sequence	PBM E-score
ATGGTCAG	-0.163
TATGAAAA	-0.0373
GAACTGGA	0.19
CGCGTGAA	0.0724
AGGATTAA	0.0619
GGACGCCA	-0.12
CATAGGGG	-0.119
GCCGACCA	0.207
ACAAATGA	-0.257
AGACTACT	-0.123
CGAGCCGC	0.328
ATCCTAAC	-0.0721
AGGTAAGG	-0.294
CTCCTAAA	-0.336
CAATATTA	-0.0638
TAGGAAAA	-0.156
ACCGCTTA	-0.132
GACTTGAC	-0.0115
AATGAAGC	-0.14
CCCTGTCC	-0.224
CCGTCTTA	0.0326
AATCGCTG	-0.0898
CGAATGTA	0.193
AATCCCCC	-0.0384
GCGGCAAA	0.182

Sequence	PBM E-score
ATGTAATC	-0.0173
CGCCATTA	-0.125
CTGCAAAC	-0.133
CAGCAAGA	-0.0366
AGAGATTG	-0.131
AGAGCTGA	-0.148
ATTGTTCC	0.29
AGGCGGAG	0.04
AGTCGGCA	0.27
GCGCAGCC	-8e-05
AAGCTCGG	0.439
CACCCCAG	-0.203
AATCCACA	-0.00481
CCGTCAAC	0.13
AGGTTGGG	-0.177
TCACCCCA	-0.0405
AGTATGAC	-0.0384
AATATCCA	0.0783
GAGTGGAC	-0.0847
GCGATGAC	-0.036
CCGTGATA	0.171
AAAATGTG	0.0458
ATATAGAT	-0.0087
GTCGTGTA	-0.175
AACCCACG	-0.156

Sequence	PBM E-score
CAGCCCCG	0.113
CCATAGCC	0.0889
CCGGCCGA	0.356
TAGCGTCA	-0.249
ATCGGCAT	0.359
CACTCTTC	-0.0762
GTTAATGA	-0.154
CACGCAGG	-0.106
AAGACATC	-0.0643
CGACAGCC	-0.0124
ACCCTCAC	-0.163
AAACCAGG	-0.0927
ATAGCTGA	-0.212
GATTTCCA	-0.107
AAGCTAGA	-0.219
CGCACCTC	0.093
GGAAGATA	0.255
CAGTTGCA	-0.145
CATGTTAC	-0.175
GTAGCAAA	-0.0766
CGTAAAAC	0.0937
GTAGCCTA	-0.382
CGACATTA	0.187
GCATTGAA	0.11
GTAGCGAC	-0.111

Sequence	PBM E-score
GGCCTAGA	-0.199
AGGTAGTC	0.0157
AGCCAGAC	-0.0305
ACTCTGAC	-0.0524
GGTCCATA	-0.146
ATCCTGGA	-0.138
ATGATTTC	0.0687
GTGAAACA	-0.119
CCCCCAGG	-0.166
GCGCTACA	-0.19
AATGGCGT	-0.0969
AAATTCCC	0.167
AAATGTCC	0.0336
GGGGGATA	0.0572
AAGGCACG	-0.0273
AAGTAAGA	-0.347
GACAGGAC	-0.173
ACTCATCG	-0.0688
GGCCAGGA	-0.206
CGTGTCCC	0.0996
GCTAACGA	0.0283
CATAAATG	-0.181
AACTTACA	-0.291
CATCTTTC	-0.0854
ACACCCAT	-0.0982

Sequence	PBM E-score
CCAGAGCG	-0.229
ACGTCTAC	-0.212
AAATCCCC	0.0768
AGCCTGAA	-0.115
ATGCTCGC	-0.239
CTAACTAA	-0.063
AACTTGGC	-0.109
GTGGGCAA	-0.0788
AAGTCGCC	0.019
CAGGCAAA	-0.0379
CCTGGACC	-0.229
ACCCCACG	0.0622
ATCGGAAC	0.428
GCGCTAAC	-0.112
ACACACTC	-0.0812
AACGCCTA	-0.0403
CATGAATA	-0.291
AAGTGTGG	0.0214
ATCACACA	-0.149
CATCGACA	0.0237
ACCCCGAG	0.333
CGGGAACG	0.339
AGTCCTCG	-0.0946
AGGCCTGC	-0.143
GGAGCGGA	0.26

Sequence	PBM E-score
ACCATTGG	-0.229
ACTCCCTC	-0.217
ACTGACGG	0.11
GACGCATA	-0.0663
GACGTACA	-0.0727
GTTTCAGA	-0.1
AGCGAGCC	0.168
AGAGAGTC	-0.253
ACCCAAGA	-0.0958
CCGTCGGC	0.329
TGATCAAA	-0.237
ATAGTAAA	-0.0702
CAACCCGG	0.187
GAAATAGC	0.0755
CCAGTCAC	-0.0768
CTGCGGCA	-0.024
CGTTACCC	0.081
AACCGCCA	-0.0477
ATGCTAAC	0.0078
ACTCCGAC	0.32
AGACCGCT	-0.157
CCACCTAA	-0.125
CTCAGAAG	-0.183
CATAACAA	-0.0176
ACGGGTGG	0.173

Sequence	PBM E-score
AAAATTGC	0.0311
ATGGTTCC	0.23
CAATGGTG	-0.219
CAACTTGC	-0.192
GTGGGAGA	-0.188
CGACCGAG	0.273
CATCGAGA	-0.158
AAAATGTC	0.0616
CGCGCACA	0.0417
AGCTCTGG	-0.19
CACACGTC	-0.116
AAGTCACT	-0.146
CAGATGTC	-0.0282
ACTCCCGG	0.372
AACGGAGC	0.0874
CCCCGTAC	-0.155
GGCTGCCA	-0.0326
AGACACCG	-0.0258
ACCCATGC	-0.177
TCATCAGA	-0.209
GGTGGTAC	0.155
AACCAACG	-0.0946
